# Experimental data: the supplement of paper PMC8728848
# The other results are listed elsewhere or left out.
# B1: F17-L (Escherichia coli) (protein)
# chain: GPDDYVPSQIAVNTSTLPGVVIGPADAHTYPRVIGELAGTSNQYVFNGGAIALMRGKFTPALPKIGSITYTFHQGNSRDSSDFDIYDIGVSGLGIIIGMAGYWPATPLVPINSSGIYIDPVGANTNPNTYNGATASFGARLFVAFVATGRLPNGYITIPTRQLGTILLEAKRTSLNNKGLTAPVMLNGGRIQVQSQTHHHHHH
# What was measured:
# Assay in all cases: glycan array binding signal (z-score within array); higher = stronger binding
# Settings in all cases: glycan notation: IUPAC condensed, linker removed
# [1] = target: Neu5Ac(a2-3)Gal(b1-4)GlcNAc(b1-6)[Gal(b1-3)]GalNAc
# In short: (§1)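 Columns mapping to the same glycan were averaged after glycan names were converted to IUPAC-condensed notation. The data come from 3228 arrays in the Consortium for Functional Glycomics database, limited to those with an available protein sequence. Binding is reported as a within-array Z-score averaged across arrays of one protein sequence and across linkers.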
# [2] = target: Neu5Ac(a2-3)Gal(b1-4)GlcNAc(b1-6)[Neu5Ac(a2-3)Gal(b1-3)]GalNAc
# In short: as §1
# [3] = target: Neu5Ac(a2-3)Gal(b1-4)GlcNAc6S
# In short: as §1
# [4] = target: Neu5Ac(a2-3)Gal(b1-4)[Fuc(a1-3)]GlcNAc
# In short: as §1
# [5] = target: Neu5Ac(a2-3)Gal(b1-4)[Fuc(a1-3)]GlcNAc(b1-2)Man
# In short: as §1
# [6] = target: Neu5Ac(a2-3)Gal(b1-4)[Fuc(a1-3)]GlcNAc(b1-3)Gal
# In short: as §1
# [7] = target: Neu5Ac(a2-3)Gal(b1-4)[Fuc(a1-3)]GlcNAc(b1-3)Gal(b1-4)GlcNAc
# In short: as §1
# [8] = target: Neu5Ac(a2-3)Gal(b1-4)[Fuc(a1-3)]GlcNAc(b1-3)Gal(b1-4)[Fuc(a1-3)]GlcNAc(b1-3)Gal(b1-4)[Fuc(a1-3)]GlcNAc
# In short: as §1
# [9] = target: Neu5Ac(a2-3)Gal(b1-4)[Fuc(a1-3)]GlcNAc(b1-3)GalNAc
# In short: as §1
# [10] = target: Neu5Ac(a2-3)Gal(b1-4)[Fuc(a1-3)]GlcNAc(b1-6)[Gal(b1-3)]GalNAc
# In short: as §1
# [11] = target: Neu5Ac(a2-3)Gal(b1-4)[Fuc(a1-3)]GlcNAc(b1-6)[Neu5Ac(a2-3)Gal(b1-3)]GalNAc
# In short: as §1
# [12] = target: Neu5Ac(a2-3)Gal(b1-4)[Fuc(a1-3)]GlcNAc6S
# In short: as §1
# [13] = target: Neu5Ac(a2-3)Gal6S(b1-4)GlcNAc
# In short: as §1
# [14] = target: Neu5Ac(a2-3)Gal6S(b1-4)[Fuc(a1-3)]GlcNAc
# In short: as §1
# Neu5Ac(a2-3)GalNAc = target: Neu5Ac(a2-3)GalNAc
# In short: as §1
# [15] = target: Neu5Ac(a2-3)GalNAc(b1-4)GlcNAc
# In short: as §1
# [16] = target: Neu5Ac(a2-3)[GalNAc(b1-4)]Gal(b1-4)Glc
# In short: as §1
# [17] = target: Neu5Ac(a2-3)[GalNAc(b1-4)]Gal(b1-4)GlcNAc
# In short: as §1
# [18] = target: Neu5Ac(a2-3)[GalNAc(b1-4)]Gal(b1-4)GlcNAc(b1-3)GalNAc
# In short: as §1
# [19] = target: Neu5Ac(a2-3)[Neu5Ac(a2-6)]GalNAc
# In short: as §1
# Neu5Ac(a2-6)Gal = target: Neu5Ac(a2-6)Gal
# In short: as §1
# [20] = target: Neu5Ac(a2-6)Gal(b1-3)GlcNAc(b1-3)[Gal(b1-4)GlcNAc(b1-6)]Gal(b1-4)Glc
# In short: as §1
# Neu5Ac(a2-6)Gal(b1-4)Glc = target: Neu5Ac(a2-6)Gal(b1-4)Glc
# In short: as §1
# [21] = target: Neu5Ac(a2-6)Gal(b1-4)GlcNAc
# In short: as §1
# [22] = target: Neu5Ac(a2-6)Gal(b1-4)GlcNAc(b1-2)Man
# In short: as §1
# [23] = target: Neu5Ac(a2-6)Gal(b1-4)GlcNAc(b1-2)Man(a1-3)Man(b1-4)GlcNAc(b1-4)GlcNAc
# In short: as §1
# [24] = target: Neu5Ac(a2-6)Gal(b1-4)GlcNAc(b1-2)Man(a1-3)[Gal(b1-4)GlcNAc(b1-2)Man(a1-6)]Man(b1-4)GlcNAc(b1-4)GlcNAc
# In short: as §1
# [25] = target: Neu5Ac(a2-6)Gal(b1-4)GlcNAc(b1-2)Man(a1-3)[GlcNAc(b1-2)Man(a1-6)]Man(b1-4)GlcNAc(b1-4)GlcNAc
# In short: as §1
# [26] = target: Neu5Ac(a2-6)Gal(b1-4)GlcNAc(b1-2)Man(a1-3)[GlcNAc(b1-4)][Neu5Ac(a2-6)Gal(b1-4)GlcNAc(b1-2)Man(a1-6)]Man(b1-4)GlcNAc(b1-4)GlcNAc
# In short: as §1
# [27] = target: Neu5Ac(a2-6)Gal(b1-4)GlcNAc(b1-2)Man(a1-3)[Man(a1-6)]Man(b1-4)GlcNAc(b1-4)GlcNAc
# In short: as §1
binder,measurement,setting,value
B1,glycan array binding signal (z-score),[1],-0.084
same,glycan array binding signal (z-score),[2],-0.034
same,glycan array binding signal (z-score),[3],-0.018
same,glycan array binding signal (z-score),[4],-0.109
same,glycan array binding signal (z-score),[5],-0.12
same,glycan array binding signal (z-score),[6],-0.181
same,glycan array binding signal (z-score),[7],-0.046
same,glycan array binding signal (z-score),[8],-0.119
same,glycan array binding signal (z-score),[9],-0.028
same,glycan array binding signal (z-score),[10],-0.165
same,glycan array binding signal (z-score),[11],-0.152
same,glycan array binding signal (z-score),[12],-0.124
same,glycan array binding signal (z-score),[13],-0.06
same,glycan array binding signal (z-score),[14],-0.031
same,glycan array binding signal (z-score),Neu5Ac(a2-3)GalNAc,0.19
same,glycan array binding signal (z-score),[15],0.087
same,glycan array binding signal (z-score),[16],-0.098
same,glycan array binding signal (z-score),[17],-0.098
same,glycan array binding signal (z-score),[18],-0.095
same,glycan array binding signal (z-score),[19],-0.055
same,glycan array binding signal (z-score),Neu5Ac(a2-6)Gal,-0.103
same,glycan array binding signal (z-score),[20],-0.133
same,glycan array binding signal (z-score),Neu5Ac(a2-6)Gal(b1-4)Glc,0.015
same,glycan array binding signal (z-score),[21],-0.165
same,glycan array binding signal (z-score),[22],-0.134
same,glycan array binding signal (z-score),[23],-0.107
same,glycan array binding signal (z-score),[24],-0.142
same,glycan array binding signal (z-score),[25],-0.117
same,glycan array binding signal (z-score),[26],-0.129
same,glycan array binding signal (z-score),[27],-0.093
